Data from the supplement of paper PMC3334620.
In all, about 33,000 sequences were measured (“E-score (-0.5 to 0.5)”: median about -0.011, highest 2% from about 0.28 on). Some of the results follow.

Molecular target: T1, Gcr1 (UniProt P07261)
T1 sequence: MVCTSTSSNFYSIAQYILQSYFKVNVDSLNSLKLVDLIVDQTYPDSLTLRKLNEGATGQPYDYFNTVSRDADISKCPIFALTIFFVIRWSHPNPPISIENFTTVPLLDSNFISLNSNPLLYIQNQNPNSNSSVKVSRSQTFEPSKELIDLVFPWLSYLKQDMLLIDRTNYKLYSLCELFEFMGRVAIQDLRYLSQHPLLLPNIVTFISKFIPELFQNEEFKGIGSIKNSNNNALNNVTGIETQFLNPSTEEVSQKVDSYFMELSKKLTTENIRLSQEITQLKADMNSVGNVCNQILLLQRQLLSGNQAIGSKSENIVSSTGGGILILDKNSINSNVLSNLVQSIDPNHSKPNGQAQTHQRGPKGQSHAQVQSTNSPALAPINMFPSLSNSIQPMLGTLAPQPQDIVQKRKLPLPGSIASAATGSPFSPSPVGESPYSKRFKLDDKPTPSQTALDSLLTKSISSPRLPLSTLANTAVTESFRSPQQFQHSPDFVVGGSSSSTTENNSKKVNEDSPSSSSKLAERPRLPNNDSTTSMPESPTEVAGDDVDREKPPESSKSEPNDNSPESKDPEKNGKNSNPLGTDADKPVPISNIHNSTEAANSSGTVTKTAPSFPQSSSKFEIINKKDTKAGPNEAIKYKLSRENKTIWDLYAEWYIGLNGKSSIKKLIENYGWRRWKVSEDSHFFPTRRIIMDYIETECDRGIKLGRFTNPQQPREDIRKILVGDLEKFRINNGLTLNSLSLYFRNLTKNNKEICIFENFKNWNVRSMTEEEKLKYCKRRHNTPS
Assay: PBM E-score (8-mer binding enrichment) (E-score (-0.5 to 0.5)); higher = stronger / more preferred TF binding; most listed sequences are background and not binding sites
Details: protein concentration: 100 nM; construct: GST-full length
Outline: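 GST-tagged yeast TFs (full-length or DNA-binding domain) were made by PURExpress in vitro transcription/translation and applied at about 100-200 nM to universal all-10-mer Agilent arrays. The arrays were made double-stranded by primer extension, on fresh or once-stripped slides. Bound protein was detected with fluorescent anti-GST, and scans were normalised with masliner. Each ungapped eight-base word, pooled with its reverse complement, received an E-score (modified Wilcoxon-Mann-Whitney statistic) from the Universal PBM Analysis Suite.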

First: CAGGCGTA
Second: CCCAGAGC
The “PBM E-score” value of the first is higher: -0.00724 for the first, -0.139 for the second.

Going from GGCATACA to ACAGTCAC, the “PBM E-score” value rises from -0.154 to -0.135.

Going from TAAGTTGA to ACTTCGCG, the “PBM E-score” value falls from 0.0103 to -0.0107.

First: ACTACAAG
Second: AGCCTATG
The “PBM E-score” value of the first is higher: 0.0419 for the first, -0.14 for the second.

Compared with GTTCTCAA, CGACGCAC is higher in “PBM E-score” value: -0.129 for the first, -0.0398 for the second.

Compared with GATGGACC, ACTTGGCA is higher in “PBM E-score” value: -0.0233 for the first, 0.103 for the second.

Compared with CGTAGCAG, GGACTTCA is higher in “PBM E-score” value: -0.0996 for the first, -0.0496 for the second.

Going from CTTCTAAC to AACTATAA, the “PBM E-score” value rises from 0.0237 to 0.052.

Going from TAAGCCTA to CTCTAACC, the “PBM E-score” value rises from -0.0689 to -0.00747.

First: CAGCTCCG
Second: AATACTCG
The “PBM E-score” value of the first is lower: 0.04 for the first, 0.0669 for the second.

Compared with CTACAAGA, CGTCTGTC is lower in “PBM E-score” value: 0.178 for the first, 0.0841 for the second.

First: GACATGAA
Second: CGCTTTCA
The “PBM E-score” value of the first is higher: 0.0102 for the first, -0.00233 for the second.

Going from CGCGCACG to CGTTTTCC, the “PBM E-score” value rises from -0.0391 to 0.0138.

First: ATGACCCG
Second: GCATACGA
The “PBM E-score” value of the first is lower: -0.321 for the first, 0.0222 for the second.

First: CCGCAGAA
Second: CATGTAGC
The “PBM E-score” value of the first is higher: 0.0395 for the first, 0.00775 for the second.

First: AAGCGTGC
Second: TCTTTGCA
The “PBM E-score” value of the first is lower: -0.18 for the first, 0.124 for the second.

Going from GGAACAGA to CTGCCTAA, the “PBM E-score” value rises from -0.132 to 0.161.

Going from ATTTATGG to CATGACCC, the “PBM E-score” value falls from 0.149 to -0.309.

Going from GCCACCAC to CTCAACCC, the “PBM E-score” value falls from 0.131 to -0.0891.

Compared with CACTTGCC, CTCAGGTC is lower in “PBM E-score” value: -0.076 for the first, -0.088 for the second.

Going from CAACCTCC to ATGCCTAG, the “PBM E-score” value rises from -0.135 to 0.0191.

First: TGATTACA
Second: AGCTACTG
The “PBM E-score” value of the first is lower: 0.073 for the first, 0.109 for the second.

Compared with TAACGCCA, CGATGTGC is lower in “PBM E-score” value: -0.132 for the first, -0.242 for the second.

Compared with CAGTGTGA, GTCAACGA is lower in “PBM E-score” value: 0.0434 for the first, -0.0653 for the second.

First: CGACCTGC
Second: ACCCCTAT
The “PBM E-score” value of the first is lower: -0.225 for the first, 0.097 for the second.

Compared with AAGATGAA, ATCAAGAA is higher in “PBM E-score” value: 0.0389 for the first, 0.231 for the second.

First: AGTATCCA
Second: GACAGGAA
The “PBM E-score” value of the first is lower: 0.042 for the first, 0.316 for the second.

Compared with CACCCTGA, ACCATTCT is lower in “PBM E-score” value: 0.0636 for the first, -0.0236 for the second.

First: GTGCGTTA
Second: TGATACAA
The “PBM E-score” value of the first is lower: -0.116 for the first, -0.0109 for the second.

Going from ACTCCCAC to GATGGCCA, the “PBM E-score” value falls from 0.0336 to -0.214.

First: CCTCAGCG
Second: GATTGTTA
The “PBM E-score” value of the first is lower: -0.0585 for the first, 0.0199 for the second.

First: CCAGTAGC
Second: ATGAACTG
The “PBM E-score” value of the first is higher: 0.164 for the first, 0.0704 for the second.

First: AGTGGAAG
Second: CCCGACTC
The “PBM E-score” value of the first is higher: 0.442 for the first, -0.179 for the second.

First: AACGAGCT
Second: AAACCTTC
The “PBM E-score” value of the first is lower: -0.123 for the first, 0.0778 for the second.

Going from CTGTATGA to ACGTAGAG, the “PBM E-score” value rises from -0.0714 to 0.0842.

First: CGATCCGA
Second: CTGCGCAA
The “PBM E-score” value of the first is lower: -0.223 for the first, 0.0872 for the second.

Going from CAAAACAC to TAACTACA, the “PBM E-score” value falls from 0.027 to -0.143.

Compared with CACCCTCC, ATACAATC is lower in “PBM E-score” value: 0.0196 for the first, -0.185 for the second.

First: AAACTCCA
Second: AGTACAGC
The “PBM E-score” value of the first is higher: -0.0481 for the first, -0.282 for the second.

Going from AAAACCGC to AGGTCGTA, the “PBM E-score” value rises from -0.0251 to -0.0148.

Going from ACTCCTCA to AACAAGTT, the “PBM E-score” value rises from 0.0709 to 0.155.

First: AGTGCAGA
Second: ATACATCG
The “PBM E-score” value of the first is higher: 0.0469 for the first, -0.00309 for the second.

Compared with AACGCATG, CGCATCCG is higher in “PBM E-score” value: -0.104 for the first, 0.221 for the second.

First: AGATTTGC
Second: ATCCATTA
The “PBM E-score” value of the first is lower: 0.102 for the first, 0.269 for the second.

First: CATGGCGC
Second: CACGACGC
The “PBM E-score” value of the first is lower: -0.0109 for the first, 0.163 for the second.

Going from ACGGGGCG to CGCCCGCC, the “PBM E-score” value falls from 0.21 to -0.0232.

Going from ACGACTAG to GCTCTTGA, the “PBM E-score” value falls from 0.017 to -0.0408.

Compared with CGCCTATC, ATGTCCTC is lower in “PBM E-score” value: -0.14 for the first, -0.212 for the second.

Going from CATTGGTA to GGGTCGCA, the “PBM E-score” value falls from 0.0202 to -0.0317.

First: ACCATGCG
Second: ATCGCCAA
The “PBM E-score” value of the first is higher: 0.0398 for the first, -0.0723 for the second.

Going from GCTATGCC to CCCTGCTA, the “PBM E-score” value falls from -0.183 to -0.188.

First: TCTATCAA
Second: AGAGAATG
The “PBM E-score” value of the first is lower: -0.11 for the first, -0.0661 for the second.

Going from AATAAAGT to CTCACACC, the “PBM E-score” value falls from 0.157 to -0.275.

Going from CGTGTGGC to AGTCATGG, the “PBM E-score” value rises from -0.151 to -0.0153.

Going from ACTACCAG to CGTAAGGC, the “PBM E-score” value falls from 0.0768 to -0.193.

First: CGTTCGCC
Second: CAGGGGAA
The “PBM E-score” value of the first is lower: -0.12 for the first, 0.0542 for the second.

First: CTAGTTTC
Second: GAACCGCC
The “PBM E-score” value of the first is higher: 0.142 for the first, 0.0437 for the second.

Compared with TCCCCGGA, CCATAAAG is higher in “PBM E-score” value: 0.081 for the first, 0.134 for the second.

Going from AGACGCAT to ATCTTGCC, the “PBM E-score” value falls from 0.231 to -0.0924.

First: GGATACAC
Second: CACAATCA
The “PBM E-score” value of the first is higher: 0.148 for the first, -0.141 for the second.

Compared with ATCCGCAC, TCCTCGAA is lower in “PBM E-score” value: 0.101 for the first, -0.0343 for the second.

First: GAAAATTC
Second: ACCTCGGC
The “PBM E-score” value of the first is lower: -0.0468 for the first, 0.00104 for the second.

First: ACAGTGCC
Second: GACTTAGC
The “PBM E-score” value of the first is lower: -0.247 for the first, -0.179 for the second.

Going from ACTTGTAG to AGGCGTAC, the “PBM E-score” value falls from 0.19 to -0.0119.

First: ACGGAGCC
Second: CCTAATGC
The “PBM E-score” value of the first is higher: 0.198 for the first, -0.122 for the second.

First: AACGGACA
Second: TAATACTA
The “PBM E-score” value of the first is lower: 0.0246 for the first, 0.0608 for the second.

Going from ACTGACTG to ACCCGAAT, the “PBM E-score” value rises from -0.168 to 0.194.

Compared with CGCACTCC, AATTTTTC is higher in “PBM E-score” value: 0.0372 for the first, 0.109 for the second.

Compared with CTGATAAC, ATCTAAAA is higher in “PBM E-score” value: 0.074 for the first, 0.0809 for the second.

Going from ATCCTCAC to ATTGAAGA, the “PBM E-score” value falls from 0.1 to 0.0516.

Compared with ACAGTCCT, AAACCTCG is higher in “PBM E-score” value: -0.141 for the first, -0.0915 for the second.

Compared with AGCGCGCG, AATTCACT is higher in “PBM E-score” value: -0.0226 for the first, 0.0221 for the second.

Going from ACAACCGA to CGACCGTC, the “PBM E-score” value falls from -0.269 to -0.41.

Compared with CAGACATG, AGCTACCC is lower in “PBM E-score” value: 0.00439 for the first, 0.00012 for the second.

First: ATTATGCC
Second: TGGAATAA
The “PBM E-score” value of the first is lower: -0.127 for the first, -0.0597 for the second.

Going from ATAGGAGG to GCTCGCTA, the “PBM E-score” value falls from 0.0574 to -0.34.

Compared with AGTACCAT, AGTGAGAA is higher in “PBM E-score” value: 0.00754 for the first, 0.0641 for the second.

First: CGTGTAAC
Second: ATCCCTCC
The “PBM E-score” value of the first is higher: 0.0763 for the first, -0.11 for the second.

Compared with GACGAAGA, ATAATTGA is higher in “PBM E-score” value: -0.156 for the first, 0.112 for the second.

First: TAGCTTGA
Second: CCCTCGCG
The “PBM E-score” value of the first is higher: -0.0368 for the first, -0.124 for the second.

Going from TAGTGCGA to CTGAGGGC, the “PBM E-score” value falls from -0.00966 to -0.111.

Compared with ATAAATAT, TTACCCAA is lower in “PBM E-score” value: 0.131 for the first, -0.0605 for the second.

First: ACCACACT
Second: CGGTATCC
The “PBM E-score” value of the first is lower: -0.00168 for the first, 0.282 for the second.

Going from GCGGCCAC to CTACACCC, the “PBM E-score” value falls from 0.161 to -0.0515.

First: CGGTCGCC
Second: CGCACGGA
The “PBM E-score” value of the first is higher: 0.0526 for the first, -0.0217 for the second.

Compared with GAGATTAC, TCGCACCA is higher in “PBM E-score” value: -0.19 for the first, 0.0244 for the second.
